How the values were obtained:
cells = experiment: Cell Titer Blue % cell viable (24 hrs); type: cell-based; details: Conc 30 μM
Protocol: The viability of cells upon treatment was assessed by CellTiter-Blue® reagent following the manufacturer's protocol in RKO, UM10B, UM1, MCR5, and UMCC92 cells. Briefly, 10,000 cells were plated in 96-well plate in quadruplets. One day after seeding, cells were treated with a range of concentrations (0.1 to 30 micromolar). […] Only the viable cells convert the redox dye (reszurin) into a fluorescent product (resofurin). The emission of fluorescence (excitation 560 nm) was measured at […]. The IC50 value was calculated as the mean concentration of compounds required to inhibit cell proliferation as measured by the fluorescence at […] by 50 percent compared to the vehicle-treated controls.

UM10B cells = experiment: Clonogenic IC50, UM10B; type: cell-based

IC50 (UM10B cells) [µM] | SMILES | % Cell viable (24 hrs) (cells) [%] | viability at 30 µM (cells; 24 h) [%]
 | CC1(C)N=C(c2ccc(F)cc2)C(=O)N1CC(=O)Nc1ccc(F)c(Cl)c1 [Compound 14] | 99.7 | 
6.5 | COc1ccc(C2=NC3(CCCCC3)N=C2SCC(=O)Nc2ccc(OC)c(Cl)c2)cc1 [Compound 30] |  | 112
44 | COc1ccc(NC(=O)CN2C(=O)C(c3ccc(F)cc3)=NC2(C)C)cc1Cl [Compound 17] | 109 | 
